# Results published in PMC6212790.
# The other results are listed elsewhere or left out. At the low end of the ranking the order means little.
# Molecular target: T1, GST-Rok-C97-191 (UniProt O34857)
# T1 sequence: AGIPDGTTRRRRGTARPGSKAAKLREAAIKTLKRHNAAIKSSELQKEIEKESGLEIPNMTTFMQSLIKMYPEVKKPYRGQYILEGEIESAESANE
# Assay: protein binding microarray;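 further: rank score from −0.5 (least bound) to 0.5 (best bound)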
# Conditions: Rok is a gene silencer of Bacillus subtilis; high values mean tight binding; most listed sequences are background and not binding sites; double strand, one strand shown
row,Sequence,binding signal
1,ATTGCATC,0.0538 E-score
2,ATCCACAA,0.026 E-score
3,ACATCTTA,0.121 E-score
4,CCGTGACA,-0.0857 E-score
5,GAGGTTTA,-0.0543 E-score
6,ACTTCACT,-0.0994 E-score
7,GCTCAACC,-0.056 E-score
8,ACTCCATG,0.138 E-score
9,GACCTGAC,-0.279 E-score
10,AAACTGTC,-0.0468 E-score
11,GCTACTGA,0.131 E-score
12,GTCGCGCA,-0.0822 E-score
13,CGCCTGTC,-0.174 E-score
14,TGAAGAAA,-0.00429 E-score
15,ATTTATGA,0.126 E-score
16,AGTTCGCA,-0.0687 E-score
17,ACTAAGGA,0.268 E-score
18,AGCCGGAG,-0.225 E-score
19,GGCACACA,-0.224 E-score
20,CGCTCTTC,-0.264 E-score
21,ATTGGAGG,-0.105 E-score
22,TATCCAAA,0.207 E-score
23,CTATAGTC,0.122 E-score
24,CCGAGCAC,-0.0285 E-score
25,ACAACCAA,0.0769 E-score

row,Sequence,binding signal
1,CCCCACGG,-0.457 E-score
2,TTAGAAAA,0.263 E-score
3,ATTTGTTC,0.104 E-score
4,AACAGAAT,-0.0178 E-score
5,AATGCTAG,0.11 E-score
6,CGCGGCAG,-0.144 E-score
7,AACTTAAT,0.148 E-score
8,CACCTCTG,-0.0739 E-score
9,AATTATAA,0.274 E-score
10,ACCGGCAT,0.041 E-score
11,ATTACGTA,0.309 E-score
12,AAATGGCC,0.073 E-score
13,ACTGATGC,-0.132 E-score
14,CTAACTAG,0.268 E-score
15,TATAGCGA,0.232 E-score
16,CAAGATCC,-0.0974 E-score
17,AGGCTGGC,-0.369 E-score
18,AAGCCTTC,-0.354 E-score
19,GCAACGTA,-0.0118 E-score
20,ACCTCCAT,0.0276 E-score
21,CGGACGCA,-0.218 E-score
22,CGCATAGC,0.0397 E-score
23,GCTCTGAA,-0.167 E-score
24,AGCCGGTC,-0.116 E-score
25,GCACACTA,-0.00608 E-score

row,Sequence,binding signal
1,ACACGAGC,-0.122 E-score
2,CATGATCA,0.0418 E-score
3,ACATGACT,-0.0153 E-score
4,GGTTGTTA,0.191 E-score
5,ACACAGCA,0.194 E-score
6,GTAAGATA,0.229 E-score
7,CCTAGTAA,0.145 E-score
8,ACCTAAGA,-0.07 E-score
9,CTCTCAAA,-0.0377 E-score
10,ATGGTGCA,0.0667 E-score
11,ATATGCAA,0.28 E-score
12,GATCCCCA,-0.243 E-score
13,ACTCGTGG,-0.126 E-score
14,CGATATAG,0.238 E-score
15,AGAAGGTC,0.101 E-score
16,AGTTAATG,0.203 E-score
17,AGGTGCCG,-0.259 E-score
18,CATAGTAA,0.272 E-score
19,AGTGGACC,-0.00869 E-score
20,AACCAGCC,-0.0305 E-score
21,GAGTAAAC,-0.0218 E-score
22,CGACTTTC,0.077 E-score
23,AAGAGAAT,0.0606 E-score
24,ATCGCATA,0.132 E-score
25,CCACATCA,-0.165 E-score

row,Sequence,binding signal
1,CCCCCAAG,-0.253 E-score
2,CAATTTAA,0.0656 E-score
3,AGTGCCTC,-0.187 E-score
4,GTTACGCA,-0.156 E-score
5,AGCGGGGA,-0.047 E-score
6,TGCATAAA,0.129 E-score
7,CGACCAGA,0.0621 E-score
8,GACGATAA,0.0437 E-score
9,AAATCAGG,0.0667 E-score
10,CGTGCTCC,-0.189 E-score
11,AGTCCGGA,-0.113 E-score
12,AACGGGGC,-0.174 E-score
13,ACTTCTCC,0.114 E-score
14,CCGCGGTA,-0.272 E-score
15,AGCATCAT,0.053 E-score
16,CGGCTGCC,-0.193 E-score
17,ACCCTAAG,-0.143 E-score
18,GTATACAA,0.31 E-score
19,CCCATGTA,0.141 E-score
20,ACAGGACG,-0.135 E-score
21,GCTGCGCA,-0.124 E-score
22,CCCACCAG,-0.304 E-score
23,AGCGCGCT,-0.0438 E-score
24,GGATTTGA,0.0544 E-score
25,ATGTCTCA,-0.0457 E-score

row,Sequence,binding signal
1,CGCACCAA,-0.0031 E-score
2,AACAGCAT,-0.0295 E-score
3,AGCCGTCG,-0.23 E-score
4,GTGCCGAA,-0.0547 E-score
5,CGCTTCCG,-0.181 E-score
6,AAGAGAGG,-0.225 E-score
7,ACTCGGGG,-0.0876 E-score
8,AATCTCGT,0.12 E-score
9,GAAGGAGC,-0.244 E-score
10,CCTCTCAC,-0.0845 E-score
11,AGGAACGG,-0.147 E-score
12,TAGGACTA,0.0149 E-score
13,TGATGTAA,0.0416 E-score
14,CATTTCCA,-0.0366 E-score
15,CTGACTAC,0.143 E-score
16,AGGCGGAG,-0.349 E-score
17,CTTTGCCA,-0.225 E-score
18,GTACTGCA,0.119 E-score
19,ATGTGGCG,-0.117 E-score
20,AAGATCGA,0.122 E-score
21,TCACAAGA,-0.206 E-score
22,CAAGAGGC,-0.149 E-score
23,CGCTAACG,0.0204 E-score
24,CGTTTGCA,-0.128 E-score
25,CGATAACC,0.00301 E-score

row,Sequence,binding signal
1,ATCCAACG,-0.0195 E-score
2,CGAATGAG,-0.0259 E-score
3,ACTCACAC,-0.0317 E-score
4,ACTGTACT,0.264 E-score
5,GAACGAAA,0.0914 E-score
6,AGGGTGGA,-0.247 E-score
7,TACATCCA,0.247 E-score
8,CACCTGTC,-0.28 E-score
9,GCCAGTCA,-0.202 E-score
10,CGCTATGC,-0.0358 E-score
11,GATGAACC,-0.13 E-score
12,AGTCTGTA,0.128 E-score
13,GAGGGCCC,-0.371 E-score
14,CCATGTTA,0.102 E-score
15,GCTACGCA,-0.104 E-score
16,GAGTTCTA,0.134 E-score
17,GCTCCTCA,-0.273 E-score
18,CGCCGTAA,-0.103 E-score
19,AGGCTCTG,-0.122 E-score
20,CATCGTTA,0.0763 E-score
21,ATGTGTTG,0.106 E-score
22,ACGATACA,0.117 E-score
23,CCATTACA,0.0199 E-score
24,ATGCTAAT,0.158 E-score
25,CTGAGAAC,-0.163 E-score

row,Sequence,binding signal
1,ACATCCCA,-0.132 E-score
2,GTATATAA,0.285 E-score
3,AACCAATC,0.22 E-score
4,CGCAACAG,-0.195 E-score
5,GGATGTTA,0.0716 E-score
6,CGCTGGAC,-0.0953 E-score
7,CCAAACCG,0.00158 E-score
8,CACGAGAC,-0.187 E-score
9,AAGGGTAG,0.0604 E-score
10,ACGCACCG,-0.0486 E-score
11,CCCACGGC,-0.265 E-score
12,AGGTCAGA,-0.177 E-score
13,CAAGGGCC,-0.186 E-score
14,CGCTGTTC,-0.0562 E-score
15,CCGACTGC,-0.201 E-score
16,GGCGCGAA,-0.139 E-score
17,CAAATTTG,0.0571 E-score
18,ACTCAACC,-0.0589 E-score
19,GGGGATAA,0.0339 E-score
20,GGACCTGA,-0.221 E-score
21,CGCTCAAC,-0.071 E-score
22,AGGGAACA,-0.135 E-score
